Measured values taken from PubChem BioAssay AID1345083 (National Center for Advancing Translational Sciences (NCATS), 2018).
In all, about 94,000 compounds went through this assay and about 6,200 (6.6%) were called active. The inconclusive results got no clear call from the source; some entries with a clear call stand among them for comparison. Calls follow the shape of the dose curve; as a rule, active = well fitted inhibition curve with a large enough effect; inconclusive = small, poorly fitted or top-dose-only effect; inactive = flat fitted curve, though single readings scatter. Potencies of inconclusive entries are doubtful fits and often do not repeat.

Assay: Cytotoxic Profiling in HEK 293 Cell Line of Diverse Libraries Using Quantitative High-Throughput Screening; also: nearly all actives have a fitted effect of over 60% in size
Conditions: HEK 293 viability, ATP luminescence (CellTiter-Glo), 48-72 h; activity change, negative = cytotoxicity: at 115 µM (top of the series) unless noted; series mostly up to 115 µM
Procedure, shortened: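 250 HEK 293 cells/well; compound by pintool; incubated 48 or 72 hr at 37 degree Celsius; CellTiter-Glo added, 10 min RT, luminescence imaged.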
% is scaled to controls: 0 for no effect and ±100 for the full control effect; potency is read from the fitted curve at half-maximal effect; tags tell the direction and shape of the fitted curve.

SMILES | Potency | activity change, negative = cytotoxicity | outcome
CC(C)c1ccc(NC(=O)N[C@H]2CO[C@H]3[C@@H]2OC[C@H]3OC(=O)Nc2ccc(Oc3ccccc3)cc2)cc1 | inconclusive: 14.1 µM [inhibitor, partial curve, poor fit] | – | –
Cc1ccc(CNC(=O)Cn2c(-c3ccc(F)cc3)nc(C)c(CCO)c2=O)cc1 | inconclusive: 56.2 µM [inhibitor, partial curve, poor fit] | – | –
CCc1ccccc1NC(=O)CC1CCN(c2ccnc(OC)n2)CC1 | inconclusive: 39.8 µM [inhibitor, full curve] | – | –
CCOc1ccc(NC(=O)C2CCc3ncc(-c4ccsc4)n3C2)cc1 (stereo unspecified) | inconclusive: 50.1 µM [inhibitor, partial curve, poor fit] | – | –
O=C(NCc1cccc(Cl)c1)c1ccc2oc(-c3ccncc3)nc2c1 | inconclusive: 39.8 µM [inhibitor, partial curve, poor fit] | – | –
Cc1cccc2c1nc1n2[C@@H](CNC2CCOCC2)COC1 | – | inactive: -6.49% [at 172 µM] | –
c1ccc([C@@H]2C[C@@H]3C[C@H](NC4CCCCCC4)C[C@@H]3CO2)cc1 | inconclusive: 89.1 µM [inhibitor, single point] | – | –
COc1cccc(-c2cn3cc(C(=O)NCc4ccc(F)cc4)nc3s2)c1 | inconclusive: 56.2 µM [inhibitor, partial curve, poor fit] | – | –
O=C(NCCCc1ccccc1)c1nc2sccn2c1-c1ccccc1 | inconclusive: 100 µM [inhibitor, single point] | – | –
CNC(=O)c1cc(C2CC2)nc2onc(C3CCN(C(=O)c4cccc(Cl)c4)C3)c12 (stereo unspecified) | inconclusive: 50.1 µM [inhibitor, partial curve, poor fit] | – | –
O=C1Nc2cnccc2C2(CCN([S+](=O)([O-])c3cccc(C(F)(F)F)c3)C2)O1 (stereo unspecified) | inconclusive: 89.1 µM [inhibitor, partial curve, poor fit] | – | –
Cn1nccc1C(=O)N1[C@@H]2CC[C@H]1CC(NC(=O)c1ccc(F)cc1)C2 (stereo partly specified) | – | – | inactive
Cc1noc(C)c1CC(=O)N1CCCn2cc(-c3ccccc3F)nc21 | inconclusive: 89.1 µM [inhibitor, single point] | – | –
COc1ccc(S(=O)(=O)N2C[C@@H]3C[C@H](C2)c2c(NC(=O)c4ccco4)ccc(=O)n2C3)cc1 | inconclusive: 35.5 µM [inhibitor, full curve, poor fit] | – | –
O=C(Nc1ccc(F)cc1)N1CCC(CCNC(=O)C2(c3ccccc3)CC2)CC1 | inconclusive: 50.1 µM [inhibitor, partial curve, poor fit] | – | –
CC(=O)N1CCC(N2CC3(C2)C(=O)N(Cc2ccccc2Cl)C(=O)[C@@H]2C[C@@H](O)CN23)CC1 | – | inactive: -7.44% | –
CCc1nnc(CN(C)C(=O)c2cnc(-c3ccc(C)cc3)[nH]c2=O)o1 | – | inactive: 3.4% | –
CC1=C[C@@H](CN2CCOCC2)[C@H](C(C)C)C[C@H]1Cc1nnc(-c2ccccc2)o1 | active: 89.1 µM | – | –
COc1ccc(-c2ccnc3nc(C4CC4)nn23)cc1 | inconclusive: 79.4 µM [inhibitor, single point] | – | –
COc1cccc(-c2cc(-c3cccnc3)c3cncn3c2)c1OC | inconclusive: 79.4 µM [inhibitor, partial curve, poor fit] | – | –
c1ccc(CN2CCNc3cc(NCc4cccnc4)ncc3C2)cc1 | inconclusive: 44.7 µM [inhibitor, full curve] | – | –

SMILES | Potency | activity change, negative = cytotoxicity | outcome
COc1ccc(Nc2cc3c(cn2)NCCN(Cc2ccccc2)C3)cc1 | active: 79.4 µM | – | –
COc1cccc(-c2c(C(=O)NCc3cccs3)nc3sccn23)c1 | inconclusive: 50.1 µM [inhibitor, partial curve, poor fit] | – | –
CN1c2cc(C(=O)NCc3ccc(F)c(Cl)c3)ccc2C(=O)N2CCCCC21 (stereo unspecified) | inconclusive: 56.2 µM [inhibitor, partial curve, poor fit] | – | –
O=C1Nc2ccccc2CC12CCCN(Cc1ccc(F)cc1)C2 (stereo unspecified) | inconclusive: 100 µM [inhibitor, single point] | – | –
CCn1nc(C)c(CCC(=O)NC2CCCc3c2[nH]c2c(Cl)cccc32)c1C (stereo unspecified) | inconclusive: 7.94 µM [inhibitor, full curve, poor fit] | – | –
O=C(Nc1cccc(F)c1)N1CCC(O)(c2csc(CN3CCc4ccccc4C3)n2)CC1 | inconclusive: 50.1 µM [inhibitor, partial curve, poor fit] | – | –
C[S+](=O)([O-])c1ccc(-c2nc(C(=O)NCc3ccc4c(c3)OCO4)n3ccccc23)cc1 | – | inactive: -13% | –
COc1cccc(N2C(=O)NC(=NC3CCCCC3)C23CCN([S+](=O)([O-])c2cccs2)CC3)c1 | – | inactive: -8% | –
CCN(Cc1ccccc1)C(=O)CC1CCCN(c2cnn(CC3CC3)c(=O)c2)C1 (stereo unspecified) | inconclusive: 50.1 µM [inhibitor, partial curve, poor fit] | – | –
O=C1N2CCCC2CN1C1CCN(Cc2ccc(F)cc2)CC1 (stereo unspecified) | – | inactive: -24.5% [at 172 µM] | –
CN1CC(=O)N(c2ccccc2)Cc2c(NC3CCC3)ncnc21 | inconclusive: 56.2 µM [inhibitor, full curve] | – | –
O=c1cc(-c2ccncc2)oc2c(-c3ccccc3O)nccc12 | inconclusive: 126 µM [inhibitor, single point] | – | –
CC(C)c1nc(-c2ccc(OC3CCN(C(=O)Cc4cccc(F)c4)C3)cc2)no1 (stereo unspecified) | inconclusive: 50.1 µM [inhibitor, partial curve, poor fit] | – | –
CCN(Cc1nc(C)no1)C(=O)c1cc(COc2ccccc2F)[nH]n1 | – | – | inactive
Cc1ccc(S(=O)(=O)N2CCC(CCC(=O)NCCc3ccccc3)CC2)cc1 | inconclusive: 100 µM [inhibitor, single point] | – | –
Cc1cccc(CNC(=O)c2cc(NC(=O)C(C)C)cc3nc(C)ccc23)c1 | inconclusive: 56.2 µM [inhibitor, partial curve, poor fit] | – | –
O=C(NCc1cccc(F)c1)C1CCCN(Cc2cccc(-c3ccc(F)cc3F)c2)C1 (stereo unspecified) | active: 44.7 µM | – | –
CC1(c2ccccc2)CCCN(C(=O)c2cnc(-c3cccnc3)nc2)C1 (stereo unspecified) | inconclusive: 56.2 µM [inhibitor, partial curve, poor fit] | – | –
COc1ccc(C(=O)N2CCC3(CC2)CC(c2nc(C)no2)N(C)C3)cc1F (stereo unspecified) | – | inactive: 3.66% | –
O=C(NCc1cccs1)c1cn2cc(-c3ccccc3)sc2n1 | inconclusive: 35.5 µM [inhibitor, full curve] | – | –
Fc1ccc(CN2CC[C@H](c3nc4cc(Cl)ccc4o3)C2)cc1F | active: 89.1 µM | – | –

SMILES | Potency | activity change, negative = cytotoxicity | outcome
CS(=O)(=O)N1C[C@H]2CCN(Cc3ccccc3F)C[C@H]21 | inconclusive: 89.1 µM [inhibitor, single point] | – | –
CCOc1ccc2c(n1)CCN(C(=O)c1nccn1C)C2 | – | inactive: -2.75% | –
COc1ccc(F)c(CN2CCC(CCC(=O)N3CCN(c4ccccc4)CC3)CC2)c1 | inconclusive: 39.8 µM [inhibitor, partial curve] | – | –
Cc1cc(-c2cc3c(cn2)CN(CC2CCOC2)CCN3)ccn1 (stereo unspecified) | – | inactive: -30.4% [at 172 µM] | –
O=C1CC(c2noc(-c3ccccc3Cl)n2)CN1c1ccc(F)cc1 (stereo unspecified) | inconclusive: 79.4 µM [inhibitor, partial curve, poor fit] | – | –
CCCN(C)C(=O)c1onc(-c2ccc(F)cc2)c1[C@H](C)O | inconclusive: 126 µM [inhibitor, single point] | – | –
COc1cc(OC)c(OC)cc1CN1CCc2nc(N3CCOCC3)[nH]c(=O)c2CC1 | – | inactive: -8.33% | –
COc1ccccc1-c1ccc(C(=O)N2CCC(C(=O)Nc3ccccc3Cl)CC2)cc1 | inconclusive: 50.1 µM [inhibitor, partial curve, poor fit] | – | –
COc1ccc(-c2cc3c(nc2-c2ccccc2)nc(C(=O)NCCN(C)C)n3C)cc1OC | inconclusive: 79.4 µM [inhibitor, partial curve] | – | –
COc1ccc2[nH]c(C[C@@H]3C[C@@H](C(C)C)[C@H](CNC(=O)Cn4cnnn4)C=C3C)nc2n1 | inconclusive: 89.1 µM [inhibitor, partial curve, poor fit] | – | –
CCOc1ccc(C(=O)N2CCN(c3cc(-c4ccc(Cl)cc4)[nH]n3)CC2)cc1 | inconclusive: 39.8 µM [inhibitor, partial curve, poor fit] | – | –
Cn1cc(CN2C[C@@H]3C[C@H](C2)c2ccc(NC(=O)c4cccs4)c(=O)n2C3)c2ccccc21 | inconclusive: 35.5 µM [inhibitor, full curve] | – | –
CSCC(=O)N1CCc2[nH]nc(-c3ccc4c(c3)OCO4)c2C1 | – | inactive: -4.07% | –
O=C(c1ccc2ncccc2c1)N1CCOC(c2ccc(Cl)c(Cl)c2)C1 (stereo unspecified) | inconclusive: 39.8 µM [inhibitor, partial curve, poor fit] | – | –
O=C(CCn1ccn2nc3c(c2c1=O)CCCC3)Nc1ccc(F)c(Cl)c1 | inconclusive: 50.1 µM [inhibitor, partial curve, poor fit] | – | –
CC(C)CCN1CCC(O)(c2csc(CN3CCN(C)CC3)n2)CC1 | inconclusive: 100 µM [inhibitor, partial curve, poor fit] | – | –
O=C1CO[C@H]2CN(Cc3ccc4c(c3)OCO4)C[C@H]2N1Cc1ccc(F)cc1 | inconclusive: 112 µM [inhibitor, partial curve, poor fit] | – | –
CCCNC(=O)Cc1csc2nc(C)c(-c3cc(C)n(-c4ccccc4CC)n3)c(=O)n12 | inconclusive: 50.1 µM [inhibitor, partial curve, poor fit] | – | –
Cc1ccc(NC(=O)N2CCCC(Cn3c(C4CC4)nc4cccnc43)C2)cc1C (stereo unspecified) | inconclusive: 89.1 µM [inhibitor, single point] | – | –
